# According to paper PMC9911399, “Two distinct binding modes provide the RNA-binding protein RbFox with extraordinary sequence specificity”:
# Numbering of substitutions follows the chain as printed; changes in the protein carry UniProt numbers. This is one part of the list.
# T1: RBFOX1 RRM (Homo sapiens, UniProt Q9NWB1 109-208)
# T1 sequence: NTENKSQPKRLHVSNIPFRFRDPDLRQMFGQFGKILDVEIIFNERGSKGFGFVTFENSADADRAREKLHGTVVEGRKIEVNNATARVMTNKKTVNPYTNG
# B1: AUGCCGC (DNA:RNA)
# RNA: GGGAGACCGGAAUUCAGAUUGUCCAUGCCGCUUAAAUCCCGUCGUAGCCACCA
# DNA 1: CAATCTGAATTCCGGTCTCCC
# DNA 2: TGGTGGCTACGACGGGATT
# B2: UAUGUCA (DNA:RNA)
# RNA: GGGAGACCGGAAUUCAGAUUGUCCUAUGUCAUUAAAUCCCGUCGUAGCCACCA
# DNA 1: CAATCTGAATTCCGGTCTCCC
# DNA 2: TGGTGGCTACGACGGGATT
# B3: CCGCCAA (DNA:RNA)
# RNA: B1 RNA with A25C, U26C, G30A, C31A
# DNA 1: CAATCTGAATTCCGGTCTCCC
# DNA 2: TGGTGGCTACGACGGGATT
# B4: GACGCGA (DNA:RNA)
# RNA: B2 RNA with U25G, U27C, U29C, C30G
# DNA 1: CAATCTGAATTCCGGTCTCCC
# DNA 2: TGGTGGCTACGACGGGATT
# B5: UGUAAUC (DNA:RNA)
# RNA: B2 RNA with A26G, G28A, U29A, C30U, A31C
# DNA 1: CAATCTGAATTCCGGTCTCCC
# DNA 2: TGGTGGCTACGACGGGATT
# B6: GCAAACC (DNA:RNA)
# RNA: B1 RNA with A25G, U26C, G27A, C28A, C29A, G30C
# DNA 1: CAATCTGAATTCCGGTCTCCC
# DNA 2: TGGTGGCTACGACGGGATT
# B7: ACGGCGC (DNA:RNA)
# RNA: B1 RNA with U26C, C28G
# DNA 1: CAATCTGAATTCCGGTCTCCC
# DNA 2: TGGTGGCTACGACGGGATT
# B8: CUCACAA (DNA:RNA)
# RNA: B1 RNA with A25C, G27C, C28A, G30A, C31A
# DNA 1: CAATCTGAATTCCGGTCTCCC
# DNA 2: TGGTGGCTACGACGGGATT
# B9: CGCUUCA (DNA:RNA)
# RNA: B2 RNA with U25C, A26G, U27C, G28U
# DNA 1: CAATCTGAATTCCGGTCTCCC
# DNA 2: TGGTGGCTACGACGGGATT
# B10: AGCAAAG (DNA:RNA)
# RNA: B1 RNA with U26G, G27C, C28A, C29A, G30A, C31G
# DNA 1: CAATCTGAATTCCGGTCTCCC
# DNA 2: TGGTGGCTACGACGGGATT
# B11: AGACGAA (DNA:RNA)
# RNA: B1 RNA with U26G, G27A, C29G, G30A, C31A
# DNA 1: CAATCTGAATTCCGGTCTCCC
# DNA 2: TGGTGGCTACGACGGGATT
# B12: GCCCCGA (DNA:RNA)
# RNA: B1 RNA with A25G, U26C, G27C, C31A
# DNA 1: CAATCTGAATTCCGGTCTCCC
# DNA 2: TGGTGGCTACGACGGGATT
# B13: AGAAGUG (DNA:RNA)
# RNA: B1 RNA with U26G, G27A, C28A, C29G, G30U, C31G
# DNA 1: CAATCTGAATTCCGGTCTCCC
# DNA 2: TGGTGGCTACGACGGGATT
# B14: UCAGAGA (DNA:RNA)
# RNA: B2 RNA with A26C, U27A, U29A, C30G
# DNA 1: CAATCTGAATTCCGGTCTCCC
# DNA 2: TGGTGGCTACGACGGGATT
# B15: UAUAAGU (DNA:RNA)
# RNA: B2 RNA with G28A, U29A, C30G, A31U
# DNA 1: CAATCTGAATTCCGGTCTCCC
# DNA 2: TGGTGGCTACGACGGGATT
# B16: CCGGACA (DNA:RNA)
# RNA: B2 RNA with U25C, A26C, U27G, U29A
# DNA 1: CAATCTGAATTCCGGTCTCCC
# DNA 2: TGGTGGCTACGACGGGATT
# B17: UGUAUCU (DNA:RNA)
# RNA: B2 RNA with A26G, G28A, A31U
# DNA 1: CAATCTGAATTCCGGTCTCCC
# DNA 2: TGGTGGCTACGACGGGATT
# B18: ACCGACA (DNA:RNA)
# RNA: B2 RNA with U25A, A26C, U27C, U29A
# DNA 1: CAATCTGAATTCCGGTCTCCC
# DNA 2: TGGTGGCTACGACGGGATT
# B19: AAGUACA (DNA:RNA)
# RNA: B2 RNA with U25A, U27G, G28U, U29A
# DNA 1: CAATCTGAATTCCGGTCTCCC
# DNA 2: TGGTGGCTACGACGGGATT
# B20: UUGGAUU (DNA:RNA)
# RNA: B1 RNA with A25U, C28G, C29A, G30U, C31U
# DNA 1: CAATCTGAATTCCGGTCTCCC
# DNA 2: TGGTGGCTACGACGGGATT
# B21: UAUAAAG (DNA:RNA)
# RNA: B2 RNA with G28A, U29A, C30A, A31G
# DNA 1: CAATCTGAATTCCGGTCTCCC
# DNA 2: TGGTGGCTACGACGGGATT
# B22: GUGGUAG (DNA:RNA)
# RNA: B1 RNA with A25G, C28G, C29U, G30A, C31G
# DNA 1: CAATCTGAATTCCGGTCTCCC
# DNA 2: TGGTGGCTACGACGGGATT
# B23: GGGUUCG (DNA:RNA)
# RNA: B2 RNA with U25G, A26G, U27G, G28U, A31G
# DNA 1: CAATCTGAATTCCGGTCTCCC
# DNA 2: TGGTGGCTACGACGGGATT
# B24: AUGUCAA (DNA:RNA)
# RNA: B1 RNA with C28U, G30A, C31A
# DNA 1: CAATCTGAATTCCGGTCTCCC
# DNA 2: TGGTGGCTACGACGGGATT
# B25: CGCCACC (DNA:RNA)
# RNA: B1 RNA with A25C, U26G, G27C, C29A, G30C
# DNA 1: CAATCTGAATTCCGGTCTCCC
# DNA 2: TGGTGGCTACGACGGGATT
# B26: UAUUCAG (DNA:RNA)
# RNA: B2 RNA with G28U, U29C, C30A, A31G
# DNA 1: CAATCTGAATTCCGGTCTCCC
# DNA 2: TGGTGGCTACGACGGGATT
# B27: GCACACU (DNA:RNA)
# RNA: B1 RNA with A25G, U26C, G27A, C29A, G30C, C31U
# DNA 1: CAATCTGAATTCCGGTCTCCC
# DNA 2: TGGTGGCTACGACGGGATT
# B28: CAUAAAA (DNA:RNA)
# RNA: B2 RNA with U25C, G28A, U29A, C30A
# DNA 1: CAATCTGAATTCCGGTCTCCC
# DNA 2: TGGTGGCTACGACGGGATT
# B29: ACGGCCU (DNA:RNA)
# RNA: B1 RNA with U26C, C28G, G30C, C31U
# DNA 1: CAATCTGAATTCCGGTCTCCC
# DNA 2: TGGTGGCTACGACGGGATT
# B30: AUGCGUC (DNA:RNA)
# RNA: B1 RNA with C29G, G30U
# DNA 1: CAATCTGAATTCCGGTCTCCC
# DNA 2: TGGTGGCTACGACGGGATT
# B31: CCAGACC (DNA:RNA)
# RNA: B2 RNA with U25C, A26C, U27A, U29A, A31C
# DNA 1: CAATCTGAATTCCGGTCTCCC
# DNA 2: TGGTGGCTACGACGGGATT
# Target: T1, RBFOX1 RRM
# Assay: EMSA; HiTS-Eq, 1 nM pool, 10 min; buffer printed only for the single-RNA assays: 10 mM Tris pH 7.5, 150 mM NaCl, 3.4 mM EDTA, 0.001% NP-40, 30 C
# Conditions: tags: His6 N-terminal (pET28a); label: 5' 32P
# In short: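 Purified RbFox RRM (wild type or mutant) was equilibrated for 10 min in 50 µL with 1 nM of a 5′-radiolabelled pool of RNA with 7 randomized nucleotides, its flanks annealed to DNA oligonucleotides, across increasing protein concentrations. Free RNA was separated by 8% native PAGE, excised, reverse-transcribed, PCR-barcoded and sequenced on an Illumina HiSeq 2500. Relative association constants came from read-count changes of each variant against the control reaction, normalised to the cognate motif.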
row,Binder,binding signal
1,B1,0.0112 KA relative to UGCAUGU
2,B2,0.0112 KA relative to UGCAUGU
3,B3,0.00228 KA relative to UGCAUGU
4,B4,0.0138 KA relative to UGCAUGU
5,B5,0.0104 KA relative to UGCAUGU
6,B6,0.00398 KA relative to UGCAUGU
7,B7,0.0112 KA relative to UGCAUGU
8,B8,0.00131 KA relative to UGCAUGU
9,B9,0.0083 KA relative to UGCAUGU
10,B10,0.00369 KA relative to UGCAUGU
11,B11,0.00581 KA relative to UGCAUGU
12,B12,0.00208 KA relative to UGCAUGU
13,B13,0.0107 KA relative to UGCAUGU
14,B14,0.0115 KA relative to UGCAUGU
15,B15,0.0102 KA relative to UGCAUGU
16,B16,0.008 KA relative to UGCAUGU

row,Binder,binding signal
1,B17,0.0151 KA relative to UGCAUGU
2,B18,0.00356 KA relative to UGCAUGU
3,B19,0.00261 KA relative to UGCAUGU
4,B20,0.0127 KA relative to UGCAUGU
5,B21,0.00532 KA relative to UGCAUGU
6,B22,0.0176 KA relative to UGCAUGU
7,B23,0.026 KA relative to UGCAUGU
8,B24,0.00745 KA relative to UGCAUGU
9,B25,0.00532 KA relative to UGCAUGU
10,B26,0.0169 KA relative to UGCAUGU
11,B27,0.00505 KA relative to UGCAUGU
12,B28,0.000631 KA relative to UGCAUGU
13,B29,0.0126 KA relative to UGCAUGU
14,B30,0.0134 KA relative to UGCAUGU
15,B31,0.004 KA relative to UGCAUGU
